# Results taken from PubChem BioAssay AID1745853 (National Center for Advancing Translational Sciences (NCATS), 2022).
# “And” between values parts separate entries of the source, which are not always exact repeats. Equal entries are not always repeated. The list shows a part of the results. Further columns of the screen follow, without active or inactive calls.
# Legend:
# Experiment in all cases: Primary Screen for Target Class Profiling of Small Molecule Inhibitors of Methyltransferases
# [1] = target: Glycine N-methyltransferase (Homo sapiens) (UniProt Q14749); settings: purified enzyme, MTase-Glo SAH luminescence; measured here: GNMT inhibition; at 40 µM; stronger effect = lower value
# In short: (§1)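 Each enzyme was assayed with SAM and its substrate. SAH formation detected by MTase-Glo luminescence; single-point 40 uM screen[…].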
# [2] = target: Guanidinoacetate N-methyltransferase (Homo sapiens) (UniProt Q14353); settings: purified enzyme, MTase-Glo SAH luminescence; measured here: GAMT inhibition; at 40 µM; stronger effect = lower value
# In short: as §1
# [3] = target: Histamine N-methyltransferase (Homo sapiens) (UniProt P50135); settings: purified enzyme, MTase-Glo SAH luminescence; measured here: HNMT inhibition; at 40 µM; stronger effect = lower value
# In short: as §1
# [4] = target: Nicotinamide N-methyltransferase (Homo sapiens) (UniProt P40261); settings: purified enzyme, MTase-Glo SAH luminescence; measured here: NNMT inhibition; at 40 µM; stronger effect = lower value
# In short: as §1
# [5] = target: Phenylethanolamine N-methyltransferase (Homo sapiens) (UniProt P11086); settings: purified enzyme, MTase-Glo SAH luminescence; measured here: PNMT inhibition; at 40 µM; stronger effect = lower value
# In short: as §1
# % is scaled to controls: 0 for no effect and ±100 for the full control effect.
SMILES,"activity change, negative = inhibition [1]","activity change, negative = inhibition [2] [%]","activity change, negative = inhibition [3]","activity change, negative = inhibition [4]","activity change, negative = inhibition [5]"
CCCn1c(=O)c2ccc(C(=O)NCC(C)C)cc2n2c(=O)n(CC(N)=O)nc12,0.951%,0.788,3.32%,3.24%,4.01%
COc1ccc(CCc2nc(-c3nnn4c3COC(c3ccc(Cl)cc3)C4)no2)cc1 (stereo not given),-2.07%,-2.31,-0.37%,2.56%,4.93%
COc1ccccc1N1CCN(C(=O)Cn2c(=O)oc3cc(S(=O)(=O)N4CCCC4)ccc32)CC1,6.37%,0,-0.014%,-0.51%,1.15%
C[C@]1(O)CC[C@@H]2C(C(=O)O)=CO[C@@H](O[C@@H]3O[C@H](CO)[C@@H](O)[C@H](O)[C@H]3O)[C@@H]21,0%,7.04,8.07%,-5.25%,4.55%
CC1(C(=O)NC2CCCCC2)Cn2c(nc3ccccc32)C(=O)N1Cc1ccccc1Br (stereo not given),4.05%,3.82,4.35%,-0.232%,-2.34%
COc1ccccc1CNC(=O)C1(C)Cn2nc(-c3ccccc3)cc2C(=O)N1CCc1ccco1 (stereo not given),3.04%,0,8.3%,3.16%,2.92%
Cc1ccc(CNC(=O)CSc2nnc3n(CC(C)C)c(=O)c4ccccc4n23)cc1,-4.44%,-2.89,1.95%,-3.07%,-4.6%
CCc1ccc(C(=O)NC(Cc2c[nH]c3ccccc23)C(=O)OCC(=O)c2ccc(Br)cc2)cc1 (stereo not given),14%,1.18,11.8%,-0.131%,4.74%
O=c1c2ccccc2n2c(SCc3ccccc3)nnc2n1CCc1ccccc1,-1.27%,0,6%,-4.93%,3.91%
CCCC(CCC)C(=O)OC1CC2CCC(C1)[N+]2(C)C (stereo not given),7.92%,10.1,13.9%,-4.34%,3.93%
COc1cc(CNC(=O)CCCC/C=C/C(C)C)ccc1O,-4.98%,2.95,6.88%,-15.2%,-2.66%
Clc1ccc(C2(c3ccc(-c4cn[nH]c4)cc3)CCNCC2)cc1,0.109%,8.68,-92.9%,-33.4%,4.2%
CCOc1ccccc1CNC(=O)CCn1ccc2cc(S(=O)(=O)N3CCCCC3)ccc21,8.8%,0.431,-1.16%,0.674%,1.4%
O=C(c1ccccc1)N1CCC(Oc2cccc(F)c2)(C(=O)O)CC1,-6.65%,-9.2,-5.43%,-5.48%,-9.03%
COC(=O)c1cc2n(n1)CC(C)(C(=O)NC1CCCCCC1)N(Cc1cccc(C)c1)C2=O (stereo not given),-0.613%,0.865,-7.77%,-0.231%,-0.162%
CC(C)Cn1c(=O)c2ccccc2n2c(SCc3cccc(F)c3)nnc12,-7.26%,4.14,1.76%,-13%,1.98%
CCCn1c(=O)c2ccccc2n2c(SCc3c(F)cccc3Cl)nnc12,-16.2%,1.82,4.59%,-19.9%,8.67%
COc1ccc(CCN2C(=O)c3nc4ccccc4n3CC2(C)C(=O)NC2CCCCC2)cc1OC (stereo not given),-1.29%,4.56,-5.48%,-26.5%,-0.867%
COc1ccc(NS(=O)(=O)c2cc3[nH]c(=O)[nH]c3cc2C)c(OC)c1,8.66%,2.38,11.2%,2.21%,-2.06%

SMILES,"activity change, negative = inhibition [1]","activity change, negative = inhibition [2] [%]","activity change, negative = inhibition [3]","activity change, negative = inhibition [4]","activity change, negative = inhibition [5]"
Cc1cccc2c1cnn2C(=O)CCC(=O)N1CCN(C2CCCCC2)CC1,-4.98%,0,0.349%,-0.264%,-2.39%
O=C(CCn1ccc2cc(S(=O)(=O)N3CCCCC3)ccc21)NCCc1ccccc1,0.524%,0.982,-4.76%,-4.1%,0.354%
NC1CCN(O)C1=O (stereo not given),-4.81%,5.82,0.673%,-5.38%,5.83%
CCS(=O)(=O)c1cccc(-c2cc(C(=O)NC3CCN(C)CC3)c(C)c3[nH]c4ncc(C)cc4c23)c1,-17.2% and -22.4%,3.06,-18.3% and -28.4%,-54.4% and -67.1%,-0.704% and -11.1%
Cn1c(C(=O)NCCN2CCCCC2)cc2c1CCN(Cc1cccc(F)c1)C2,-7.09%,-2.6,-53.7%,-9.9%,-3.27%
CN1C(=O)c2cc(C(=O)NCc3ccccc3)nn2CC1(C)C(=O)NCc1ccccc1 (stereo not given),5.39%,0,4.39%,-1.34%,1.81%
CC(C)NC(=O)c1ccc2c(=O)n(Cc3ccccc3)c3nn(CC(=O)NC(C)(C)C)c(=O)n3c2c1,2.81%,0,9.93%,2.76%,4.74%
COC(=O)C1C(c2ccc(O)cc2)C(C(=O)O)C1c1ccc(O)cc1 (stereo not given),3.67%,-3.31,6.14%,-13.4%,-0.874%
COc1ccc2cc3n(c2c1)CC(C)(C(=O)NCC1CCCO1)N(Cc1ccccc1F)C3=O (stereo not given),1.68%,3.66,0.629%,6.45%,-0.663%
Cc1ccccc1C(=O)N1C(C(=O)NCc2ccccc2)COC12CCN(C(=O)c1ccco1)CC2 (stereo not given),-6.6%,-9.43,-8.27%,-13%,-8.52%
O=C(CCn1c(=O)[nH]c2cc(S(=O)(=O)N3CCCCC3)ccc21)Nc1ccc(Cl)cc1,-33.8%,1.84,-11.1%,-20.8%,-14.4%
COCc1nc(CCNC(=O)NC2CCCCC2)no1,-1.85%,-4.62,0.65%,-6.96%,11.4%
CC(C)CNC(=O)c1ccc2c(=O)n(CC(C)C)c3nn(CC(=O)c4cccc(Cl)c4)c(=O)n3c2c1,3%,0,9.33%,-4.31%,3.74%
CC1CCC(NC(=O)C2(C)Cn3c(cc4sccc43)C(=O)N2C2CCCCC2)CC1 (stereo not given),-9.56%,-0.299,-8.96%,-11.4%,-11.1%
CCOc1ccc(N2C(=O)c3cc(-c4ccc(OC)cc4)nn3CC2(C)C(=O)NCc2ccccc2)cc1 (stereo not given),3.77%,0,1.73%,7.38%,-2.81%
CCOC(=O)c1cc2n(n1)CC(C)(C(=O)NCc1ccc(C)cc1)N(CCc1ccc(SC)cc1)C2=O (stereo not given),-0.154%,1.39,-2.82%,-1.1%,-1.39%
CCCC(=O)O[C@@H]1[C@@H]2[C@@H](OC(C)=O)[C@]3(C)C(=O)[C@H]4[C@@H](OC(C)=O)C(C)(C)C[C@H]4[C@]3(C)C(=O)[C@@]2(OC(C)=O)C[C@@H]1C,0.68%,-8.76,3.98%,-19.3%,-2.51%
COc1ccc(-c2nc(N3CCOCC3)cc3c2CN(Cc2ccccc2)C3=O)cn1,-9.51%,-0.362,-1.81%,-8.32%,-2.87%
COc1ccc(NC(=O)N2CCCC(CN3CCC(C)CC3)CC2)cc1 (stereo not given),0.887%,3.38,-7.59%,-5.36%,13.9%

SMILES,"activity change, negative = inhibition [1]","activity change, negative = inhibition [2] [%]","activity change, negative = inhibition [3]","activity change, negative = inhibition [4]","activity change, negative = inhibition [5]"
COc1ccc(CN2C(=O)c3cc4ccccc4n3CC2(C)C(=O)NC2CCCCC2)cc1 (stereo not given),-3.98%,0,0.541%,-2.62%,-3.57%
COc1ccc(-c2cc3n(n2)CC(C)(C(=O)NCc2ccccc2OC)N(Cc2cccc(C)c2)C3=O)cc1 (stereo not given),5.79%,0,5.01%,3.15%,-1.12%
CC1CCC(NC(=O)CCc2nnc3n(Cc4ccccc4)c(=O)c4ccccc4n23)CC1 (stereo not given),-0.01%,1.33,6.44%,-0.567%,2.32%
CCC(C)NC(=O)c1ccc2c(=O)n(C)c3nn(CC(=O)NCc4ccc(Cl)cc4)c(=O)n3c2c1 (stereo not given),4.47%,1.53,4.09%,-2.94%,1.56%
O=C(NCCc1ccco1)c1cc2n(n1)CCCN(Cc1cccc(F)c1)C2=O,-9.05%,4.92,-6.98%,-9.84%,-3.82%
CC1=CC(=O)CC(C)(C)C1/C=C/C(C)O[C@@H]1O[C@H](CO)[C@@H](O)[C@H](O)[C@H]1O[C@@H]1OC[C@](O)(CO)[C@H]1O (stereo not given in full),4.55%,6.31,11.7%,-6.66%,8.16%
COCCNC(=O)C1(C)Cn2nc(-c3ccccc3)cc2C(=O)N1Cc1ccc(C)cc1 (stereo not given),-3.97%,3.15,3.93%,8.21%,-2.46%
CC(=O)O[C@H]1[C@H](O[C@H]2CC[C@]34C[C@]35CC[C@]3(C)[C@@H]([C@@]6(C)CC[C@@H](C(C)(C)O)O6)[C@@H](O)C[C@@]3(C)[C@@H]5C[C@H](O[C@@H]3O[C@H](CO)[C@@H](O)[C@H](O)[C@H]3O)[C@H]4C2(C)C)OC[C@@H](OC(C)=O)[C@@H]1O,-7.63%,13.4,13%,8.38%,9.93%
CC(C)(C)c1ccc(NC(=O)N2CCN(c3ncccc3Cl)CC2)cc1,-2.85%,-0.889,11.8%,-18.4%,-9.21%
COCC(=O)N[C@H]1C[C@@H](CO)N(Cc2scnc2C)C1,-7.57%,-9.64,-4.44%,-16.3%,-11.1%
COCCOc1cc(-c2noc([C@@H]3CCCN3C3CCN(C(C)=O)CC3)n2)ccn1,-1.61%,-3.12,-1.03%,-10.8%,-1.64%
CC(C)n1cc(-c2cc(C(=O)N(C)Cc3cccnc3)c3cc(F)ccc3n2)cn1,-4.39%,-3.47,-0.395%,-4.73%,-3.62%
O=C1NCc2nc3ccccc3c(=O)n2C1Cc1c[nH]c2ccccc12 (stereo not given),2.25%,7.29,5.04%,-9.15%,2.56%
CCc1c(Cl)c(O)c(Cl)c(O)c1C(=O)O[C@H]1[C@H](O)[C@H](OC)[C@H](OC/C2=C\C=C\C[C@H](O)/C(C)=C\[C@H](CC)[C@@H](O[C@@H]3OC(C)(C)[C@@H](OC(=O)C(C)C)[C@H](O)[C@@H]3O)/C(C)=C/C(C)=C/C[C@@H]([C@@H](C)O)OC2=O)O[C@@H]1C,-5.04%,16.9,-69.8%,-16.1%,-2.87%
O=C(c1cc(-c2cccnc2)c2nncn2n1)N1CCOCC1,-3.47%,-1.36,-0.788%,-4.34%,-5.34%
COCc1nc(CCNC(=O)NCCc2ccccc2)no1,0.431%,-1.63,1.78%,-1.27%,-10.8%
O=C(O)CO[C@@H]1COCC[C@H]1NC(=O)c1cc2c(s1)CCCCC2,-3.5%,-5.97,-3.34%,-6.91%,0.317%
COCCOCc1nc(C2CCCN2S(=O)(=O)Cc2ccccc2)no1 (stereo not given),0.832%,1.86,2.57%,-1.41%,6.96%
O=C(c1ccon1)N1CCN(Cc2cnn3cccnc23)CC(O)C1 (stereo not given),-4.3%,-3.62,-1.65%,-3.17%,0.317%
